Screen size: about 310,000 compounds; about 2,200 (0.71%) showed an effect of 50% or more. The effect is printed as a negative number. The list shows a part of the results.
These molecules were tested against human ether-à-go-go-related gene (hERG) potassium channel (human, UniProt Q12809) (assay: primary screen, population patch clamp on CHO cells stably expressing hERG).
Chain of human ether-à-go-go-related gene (hERG) potassium channel (Q12809 whole entry, looked up): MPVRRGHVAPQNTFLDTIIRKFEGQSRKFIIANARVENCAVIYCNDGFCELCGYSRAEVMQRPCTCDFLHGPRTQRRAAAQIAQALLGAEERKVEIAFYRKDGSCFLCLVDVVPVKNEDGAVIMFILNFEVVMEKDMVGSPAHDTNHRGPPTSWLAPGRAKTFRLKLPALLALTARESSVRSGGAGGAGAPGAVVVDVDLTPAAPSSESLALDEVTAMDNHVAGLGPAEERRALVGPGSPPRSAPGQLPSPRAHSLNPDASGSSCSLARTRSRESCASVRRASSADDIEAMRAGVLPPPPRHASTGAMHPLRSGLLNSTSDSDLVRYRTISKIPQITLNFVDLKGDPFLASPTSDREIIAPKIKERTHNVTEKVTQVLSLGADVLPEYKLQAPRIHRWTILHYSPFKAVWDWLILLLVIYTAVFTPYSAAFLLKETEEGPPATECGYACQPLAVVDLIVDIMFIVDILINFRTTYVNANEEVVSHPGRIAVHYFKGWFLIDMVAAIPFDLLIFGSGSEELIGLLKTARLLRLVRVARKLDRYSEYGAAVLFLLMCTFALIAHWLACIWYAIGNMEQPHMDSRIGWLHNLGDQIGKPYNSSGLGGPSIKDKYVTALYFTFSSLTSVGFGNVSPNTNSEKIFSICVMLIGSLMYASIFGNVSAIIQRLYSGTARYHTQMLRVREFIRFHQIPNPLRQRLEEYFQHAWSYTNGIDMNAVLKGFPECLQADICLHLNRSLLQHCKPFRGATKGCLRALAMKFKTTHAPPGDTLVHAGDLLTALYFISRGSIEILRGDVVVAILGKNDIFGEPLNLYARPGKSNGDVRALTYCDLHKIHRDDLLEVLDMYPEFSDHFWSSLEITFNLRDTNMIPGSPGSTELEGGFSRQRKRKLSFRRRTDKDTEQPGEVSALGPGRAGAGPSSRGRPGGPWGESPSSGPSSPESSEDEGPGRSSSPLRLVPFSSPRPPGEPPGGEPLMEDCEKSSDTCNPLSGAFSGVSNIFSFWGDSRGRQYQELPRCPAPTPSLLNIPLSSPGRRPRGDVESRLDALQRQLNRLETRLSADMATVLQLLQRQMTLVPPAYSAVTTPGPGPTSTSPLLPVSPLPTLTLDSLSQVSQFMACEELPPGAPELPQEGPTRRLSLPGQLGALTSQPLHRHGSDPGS

Structure (SMILES) | hERG current change (%, negative = inhibition) at 1uM
CC(C)(C)OC(=O)CNC(=O)c1nc[nH]c1C(=O)N1CCc2ccccc2C1 | 6.85%
O=C(OCCCN=C1NS(=O)(=O)c2ccccc21)c1ccc(F)cc1 | 3.9%
Cc1nc2ccccc2c(=O)n1-c1ccc(NS(=O)(=O)c2ccc(F)cc2F)cc1 | -17.6%
CN(Cc1ccccc1)C(=O)CN1C(=O)COc2ccc(S(=O)(=O)N3CCCC3)cc21 | 4.35%
Cc1ccc(OCCOCCN(C)C)c(Cl)c1.O=C(O)C(=O)O | 5.45%
Cc1nn(CCC(N)=S)c2nc(-c3cccs3)cc(C(F)(F)F)c12 | 7.18%
COC(=O)c1sccc1NC(=O)CCC1CCCC1 | 6.07%
CCOC(=O)c1c(CN(C)C)n(-c2ccccc2)c2cc(Br)c(OC)cc12 | 3.82%
NC(=O)c1ccccc1NC(=O)c1ccc2ccccc2c1 | 17.6%
CC1Cn2c(CCc3ccccc3)nnc2S1 (centres unmarked) | 9.95%
O=C(O)c1cccnc1Nc1ccc(Cl)cc1 | 17.3%
COc1ccccc1NC(=O)COC(=O)CN1C(=O)C(=O)c2ccccc21 | 13%
COc1ccc(-c2cc(C(=O)Nc3ccc(C(N)=O)cc3)c3ccccc3n2)cc1 | 16.8%
OCC1OC(n2cnc3c(NCCc4ccccc4)ncnc32)C(O)C1O (centres unmarked) | 14.5%
Cc1nc(Cc2nnc(SC(C)C(=O)N3c4ccccc4NC(=O)C3(C)C)o2)cs1 (centres unmarked) | 2.7%
Fc1ccc(-c2cnc(-c3cccs3)o2)cc1 | 21.1%
CCOC(=O)C1(Cc2ccccc2)CCN(Cc2cnc(N3CCOCC3)s2)CC1 | -4.93%
COC(=O)CN(C)C(=O)c1ccccc1OC1CCN(S(C)(=O)=O)CC1 | 12.6%
O=C(/C=C\Nc1ccc(S(=O)(=O)Nc2ncccn2)cc1)c1cccc2ccccc12 | 8.3%
O=C(NNC(=O)c1cccc(O)c1)Nc1ccc([N+](=O)[O-])cc1 | 7.74%
Cc1ccc2ncnc(NCCCN3CCOCC3)c2c1 | 3.63%
NC(=Nc1ccc(Cl)cc1)c1ccccc1 | 7.87%
NC(N)=Nc1nc(CCN2C(=O)c3ccccc3C2=O)cs1 | 8.44%

Structure (SMILES) | hERG current change (%, negative = inhibition) at 1uM
COc1ccccc1OCc1ccc(C(=O)Nc2ccc(Cl)cn2)o1 | 7.5%
O=C1Nc2ccc(F)cc2C12SCCS2 | 6.52%
CC1(C)CC2CC(C)(CN2CC(=O)C(C#N)c2ccccc2)C1 (centres unmarked) | 12.2%
COc1cc(/C=C2/C(=N)N3N=C(C)SC3=NC2=O)ccc1OS(=O)(=O)c1ccc(C)cc1 | 14.1%
O=C(NC(=S)Nc1ccccc1)c1ccc(-c2ccccc2)cc1 | 21%
COc1ccc(C2/C(=C(/O)c3ccc(F)cc3)C(=O)C(=O)N2c2ccccn2)cc1OC (centres unmarked) | 11.7%
CC1(C)SC2c3ccccc3C(=O)N2[C@@H]1C(=O)NC1CC1 (some centres unmarked) | 10.9%
C/C(=N\NC(=O)Cc1ccc(O)cc1)c1cccnc1 | 17.4%
Cc1ccc(F)cc1NC(=O)CCc1c(C)[nH]c(=O)c(C#N)c1C | 15.1%
COc1cc(C(N)=O)cc(Cl)c1OCc1ccccc1 | 5.21%
COc1ccc(N2CC(C(=O)N3CCN(Cc4ccc5c(c4)OCO5)CC3)CC2=O)cc1 (centres unmarked) | 15.4%
CCS(=O)(=O)Nc1cccc(-c2nc3cccnc3s2)c1C | 9.02%
CCNc1nc(NCC)nc(C(=O)OCCO)n1 | -3.37%
Cc1cnc(C(=O)OC(C(=O)c2c[nH]c3ccccc23)c2ccccc2)cn1 (centres unmarked) | 11.9%
CCOC(=O)c1nnc2cc(-c3ccc(Br)cc3)nn2c1C | 6.29%
CC(=O)CSc1ncnc2scc(-c3ccc(F)cc3)c12 | 13.9%
CCOc1ccc(NC(=O)CS(=O)(=O)c2cn(C)c3ccccc23)cc1 | 16.8%
Cc1ccc(CN2C(=O)C(Cc3ccccc3)Nc3ncnc(N4CCN(c5ccccc5)CC4)c32)cc1.O=C(O)C(F)(F)F (centres unmarked) | 7%
Cc1cc(C)n(C(=O)CCCCCC(=O)n2nc(C)cc2C)n1 | 7.68%
O=C(CN1C(=O)CC(c2ccccc2)S(=O)(=O)c2ccccc21)NC1CCCC1 (centres unmarked) | 2.76%
CCn1c(SCC(=O)N2CCCCC2C)nnc1-c1ccc(S(=O)(=O)N2CCN(C)CC2)cc1 (centres unmarked) | -6.94%
CC(=S)c1c(C)cc2cc(C)ccn12 | 7.89%
Cc1ccccc1C(=O)N1CCC(C(=O)N2CCN(S(=O)(=O)c3ccccc3F)CC2)CC1 | 13.1%

Structure (SMILES) | hERG current change (%, negative = inhibition) at 1uM
Cc1ccc(CN(C)C(=O)CCc2nc3sc4c(c3c(=O)[nH]2)CCCC4)o1 | 12.4%
Cc1cc(/C=N/NC(=O)COc2cccc3cccnc23)c(C)n1-c1ccc(O)cc1 | 9.18%
CCC(=O)n1nc(-c2ccc(OC)cc2)nc1N | 7.87%
CCOC(=O)/C(C#N)=N/Nc1ccccc1C#N | 11.2%
Cc1ccc(NC(=O)CNCC(c2ccccc2)N(C)C)cc1F.O=C(O)C(=O)O (centres unmarked) | -3.58%
CCOC(=O)C(CSCC(=O)c1ccc(Cl)cc1)NC(=O)OC(C)(C)C (centres unmarked) | 11.2%
Cc1ccc(O)c(NC(=O)c2cc([N+](=O)[O-])ccc2Cl)c1 | -1.69%
CCOC(=O)c1c(C(C#N)C#N)cc(C)nc1C | 11.2%
COc1ccc(-c2c(C(C)=O)c(C)n(C)c2C)cc1 | 4.51%
CN(C)c1ccc(N=Nc2ccc(S(N)(=O)=O)cc2)cc1 | 14.5%
CCOC(=O)c1c(NC(=O)OC)sc(C(=O)N(C)C)c1C | -4.56%
COc1ccccc1C1=NOC(CN2C(=O)c3ccccc3S2(=O)=O)C1 (centres unmarked) | 3.55%
O=C(O)C1CCCCC1C(=O)NCc1ccccc1 (centres unmarked) | -4.05%
CC(=O)Nc1ccc(S(=O)(=O)N[C@@H](C)C(=O)N2CCN(c3ccccn3)CC2)cc1 | 12.5%
O=C(CSCc1ccccc1)Nc1ccc(Cl)cn1 | 13.5%
O=C(CSc1nnnn1-c1ccccc1)NC(=O)Cc1ccccc1 | 15.2%
Cc1ccc(CN=c2c([N+](=O)[O-])nn(-c3ccc4c(c3)OCCO4)n2O)cc1 | 17.7%
COc1cccc(/C=C/C(=O)NNC(=O)c2ccncc2)c1OC | 9.53%
COc1cc(-c2nc(-c3cccnc3)no2)cc(OC)c1OC | 11.7%
CN(c1cccc(NS(=O)(=O)c2ccccc2)c1)S(C)(=O)=O | 12.2%
CN(CC(=O)Nc1ccccc1Cl)C(=O)COC(=O)c1ccc(=O)n(Cc2ccccc2)n1 | -2.75%
CCOc1ccc(CN2CCNC(=O)C2CC(=O)NCc2ccccn2)cc1 (centres unmarked) | -4.45%
CCc1cc(=O)oc2cc(C)cc(OC(C)C(=O)NC3CCN(Cc4ccccc4)CC3)c12 (centres unmarked) | -7.8%

Structure (SMILES) | hERG current change (%, negative = inhibition) at 1uM
CCOC(=O)C1=C(N)N2C(=O)C(C)SC2=C(C(=O)OCC)C1c1cc(OC)c(OC)c(OC)c1 (centres unmarked) | 9.5%
Cc1csc(NC(=O)C2CCN(C(=O)CSc3nnc(C)n3Cc3ccccc3)CC2)n1 | -14.4%
CS(=O)(=O)Oc1ccc(Br)c2cccnc12 | 7.5%
C=CCn1c(SCC(=O)c2ccc(O)c(O)c2)nnc1-c1cccc(OC)c1 | 15.6%
CC(C)(C)Cc1nnc(NC(=O)c2ccc([N+](=O)[O-])cc2)s1 | 10.7%
Cc1cc(=O)[nH]c(SC(C)C(=O)Nc2cccc3ccccc23)n1 (centres unmarked) | 6.33%
Cc1ccc(OC(=O)c2cccc(S(=O)(=O)N3CCN(C)CC3)c2)c(Br)c1 | 4.81%
Cc1nc(CSc2nsc(C)c2C#N)cs1 | 13%
COc1ccc(CNC(=O)CSc2nnc3c(n2)[nH]c2ccccc23)cc1 | 12.2%
O=C(CSc1nnnn1-c1ccc2c(c1)OCCO2)c1cccc2c1OCCO2 | 7.8%
Cc1ccc(/C=C/C(=O)Nc2cc(C)on2)cc1 | 17%
CCOc1ccc(NC(=O)NCC2CCN(c3ccc(OC)cc3)C2)cc1 (centres unmarked) | 1.75%
Cc1cc(C)nc(N2CCN(c3nnnn3-c3ccccc3)CC2)n1 | 15.2%
COc1ccc(S(=O)(=O)Nc2ccc(S(=O)(=O)Nc3nccs3)cc2)cc1 | 12.7%
Cc1cc(C)c(C)c(S(=O)(=O)NCC(=O)Nc2sc3c(c2C(N)=O)CCCC3)c1C | 14.4%
Cc1nc(C)c(C(=O)O)s1 | -2.56%
COc1cc(NC(=O)Cc2ccccc2)c(C(=O)O)cc1OC | 12.6%
CCOC(=O)C1CCN(C2=NC(=O)/C(=C/c3ccccc3OC)S2)CC1 | 9.82%
CC1CC(C)CN(C(=O)c2cc3c(=O)n4ccccc4nc3s2)C1 (centres unmarked) | 4.44%
Cc1noc(C)c1COc1cccc(C(=O)NCc2ccccc2Cl)c1 | 16.8%
